Assay results taken from patent publication US20070093418A1 (Amgen, published 2007).

Columns and labels:
[1] = target: T1, human angiopoietin-2 (Ang-2) (human, UniProt O15123 19-496, limits assumed); assay: neutralization ELISA (Tie-2-Fc vs coated hAng-2)
T1 construct: Several preparations are used (R&D Systems protein, biotinylated R&D protein, 293T conditioned media); also called hAng-2; huAng-2
T1 sequence (looked up): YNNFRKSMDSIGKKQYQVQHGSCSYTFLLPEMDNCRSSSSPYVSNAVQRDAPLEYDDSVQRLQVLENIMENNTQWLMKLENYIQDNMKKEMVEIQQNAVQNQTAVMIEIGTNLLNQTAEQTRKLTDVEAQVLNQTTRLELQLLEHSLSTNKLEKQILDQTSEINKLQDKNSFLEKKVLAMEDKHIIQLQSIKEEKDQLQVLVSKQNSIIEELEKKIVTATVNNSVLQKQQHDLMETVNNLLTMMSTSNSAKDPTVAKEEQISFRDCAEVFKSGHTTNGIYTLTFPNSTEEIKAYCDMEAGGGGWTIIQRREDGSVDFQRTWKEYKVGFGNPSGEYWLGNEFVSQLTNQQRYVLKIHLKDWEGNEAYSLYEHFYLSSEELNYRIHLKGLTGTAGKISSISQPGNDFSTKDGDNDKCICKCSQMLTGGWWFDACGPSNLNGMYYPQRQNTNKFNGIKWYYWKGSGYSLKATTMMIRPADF
Procedure: Microtiter plates to which human Ang-2 polypeptide was bound were prepared as described for the Affinity ELISA. […] Plates were incubated at room temperature for about 1 hour, after which they were washed five times with PBS containing about 0.1 percent Tween-20. About 100 microliters per well of TMB substrate (described above) was then added and color was allowed to develop. Absorbance was then read in a spectrophotomer at 370 nm.

[2] = target: T2, murine angiopoietin-2 (Ang-2) (murine, UniProt O35608 19-496, limits assumed); assay: neutralization ELISA (Tie-2-Fc vs coated mAng-2)
T2 construct: also called mAng-2
T2 sequence (looked up): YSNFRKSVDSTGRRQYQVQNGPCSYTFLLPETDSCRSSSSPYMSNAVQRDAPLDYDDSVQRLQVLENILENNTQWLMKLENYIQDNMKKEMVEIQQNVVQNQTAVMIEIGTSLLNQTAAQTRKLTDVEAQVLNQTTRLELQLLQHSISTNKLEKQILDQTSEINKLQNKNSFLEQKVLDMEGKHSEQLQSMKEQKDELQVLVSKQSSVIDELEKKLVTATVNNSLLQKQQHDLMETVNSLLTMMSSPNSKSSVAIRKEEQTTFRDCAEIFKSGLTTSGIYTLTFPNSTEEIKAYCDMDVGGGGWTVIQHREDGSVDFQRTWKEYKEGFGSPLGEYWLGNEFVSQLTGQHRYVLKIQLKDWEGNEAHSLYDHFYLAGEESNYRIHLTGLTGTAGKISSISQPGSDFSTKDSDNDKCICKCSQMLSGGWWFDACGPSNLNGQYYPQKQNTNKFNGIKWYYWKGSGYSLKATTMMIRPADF

B1: 2xL1 (N) (Fc fusion)
chain: MGAQKFNPLDELEETLYEQFTFQQGGGGGGGGKFNPLDELEETLYEQFTFQQLEGGGGG[human IgG1 Fc not written out]
B1 was tested, and the IC50 [1] was 0.65 nM and the IC50 [2] was 0.8 nM.
